Measured values: PubChem BioAssay (NCATS)
The shares of active, inactive and inconclusive entries below differ from those in the screen. Potencies beside an inconclusive call are fits to weak or partial responses and may not hold up. Active and inactive are the calls of the source. The call rests on the fitted dose curve; in most records, active means well fitted cell-killing curve with a large enough effect; inconclusive means small, poorly fitted or top-dose-only effect, or effect the other way; inactive means flat fitted curve, though single readings scatter.

The compounds below were run on PA-1 (assay: Primary qHTS to identify gynecologic anti-cancer compounds using libraries of approved drugs and bioactive compounds (AID 1345084; further: nearly all actives have a fitted effect of over 55% in size)). Settings: Gynecologic cancer cell panel viability, ATPlite luminescence, 48 h; series mostly up to 57.5 µM; activity change, negative = cytotoxicity: at the top concentration.
Outline: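 Five-point cytotoxicity, 48 h drug exposure at 37 C, 5% CO2, on cells seeded 16 h beforehand. ATP content read by ATPlite luminescence.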
On the % scale 0 is the no-effect control and ±100 the full control effect; potency means the concentration at half of the fitted maximal effect; tags describe the fitted curve by direction and shape.

Compound	activity change, negative = cytotoxicity	Potency
C=C1[C@@]23C(=O)O[C@H](C)[C@]24O[C@@]2(C(=C)[C@]5(C=CC(=O)OC5(C)C)CC[C@]32C)[C@H](O)[C@@]1(C)OC4=O	inactive: -13.6% [at 25.3 µM]	
C#C[C@]1(O)C=C[C@H]2[C@@H]3CCC4=CC(=O)CC[C@@H]4[C@H]3CC[C@@]21CC	inactive: -20.5%	
C[C@]12CC[C@@H](O[C@@H]3O[C@H](CO)[C@@H](O)[C@H](O)[C@H]3O)C[C@@]1(O)CCC1C2CC[C@]2(C)[C@@H](C3=CC(=O)OC3)CC[C@]12O (stereo partly drawn)		active: 0.355 µM
CC(CCc1ccccc1)NC(C)C(O)c1ccc(O)cc1 (stereo not drawn)		inconclusive: 39.8 µM [cytotoxic, single point]
CCCN(CCC)C(=O)Cc1c(-c2ccc(Cl)cc2)nc2ccc(Cl)cn12		inconclusive: 39.8 µM [cytotoxic, single point]
CCCN(CCC)CCc1ccc(OC)c(OCCc2ccccc2)c1	inactive: 11.7%	
Cc1cccc(C)c1NC1=NCCCS1	inactive: 0.3%	
CC1=CC2/C=C(\C)CCC(O)C(O)/C=C/C(=O)C23C(=O)NC(CC(C)C)C3C1C (stereo not drawn)		active: 12.6 µM
Cc1ccc2c(c1)[C@H]1CN(C)CC[C@H]1N2C(=O)CSc1nnnn1-c1ccc(Cl)cc1	inactive: 2.9%	
CCCCCCC(=O)CCCCCC/C=C/C[C@@H](O)[C@H](O)[C@@](N)(CO)C(=O)O	inactive: 8.96% [at 25.3 µM]	
NC(=O)c1cc([N+](=O)[O-])cc([N+](=O)[O-])c1	inactive: -3.85%	
CNCC(=O)c1ccc(O)c(O)c1	inactive: 5.16%	
C[C@]12Cc3cn[nH]c3C[C@@H]1CC[C@@H]1[C@@H]2CC[C@@]2(C)[C@H]1CC[C@]2(C)O	inactive: -4.07%	
C=C1[C@@H]2CC[C@@]3(C)[C@H](c4ccoc4)OC(=O)C[C@]13O[C@H]1CC(=O)C(C)(C)[C@H](C(OC(C)=O)C(=O)OC)[C@]12C (stereo partly drawn)	inactive: 10.7% [at 25.3 µM]	
Oc1ccc2[nH]cc(CCCCN3CC=C(c4ccccc4)CC3)c2c1		inconclusive: 39.8 µM [cytotoxic, single point]
CCC1(c2cccc(O)c2)CCCCN(C)C1 (stereo not drawn)	inactive: 14.3%	
CC(=O)[C@H]1CC[C@H]2[C@@H]3CC[C@H]4C[C@](C)(O)CC[C@]4(C)[C@H]3CC[C@]12C	inactive: 5.31%	
CCN1CC2(COC)C3[C@@H](OC)C4C1C3(C1C[C@]3(O)[C@H](OC(=O)c5ccccc5)C1[C@]4(OC(C)=O)[C@@H](O)[C@@H]3OC)[C@H](OC)C[C@H]2O (stereo partly drawn)		inconclusive: 39.8 µM [rising, single point]
CC1=CC2/C=C(\C)CCCC(O)/C=C/C(=O)OC23C(=O)NC(CC(C)C)C3C1C (stereo not drawn)	inactive: 12% [at 38.5 µM]	

Compound	activity change, negative = cytotoxicity	Potency
CC(C)NCC(O)c1ccc(N)c(C#N)c1 (stereo not drawn)	inactive: -3.19%	
C[C@]12CC[C@H]3[C@@H](CCC4=CC(=O)CC[C@@H]43)[C@@H]1CC[C@@H]2O		active: 10 µM
CN1C(=O)c2ccccc2NC(=O)[C@]12O[C@@H]2c1ccccc1		inconclusive: 0.1 µM [cytotoxic, full curve, poor fit]
OC(O)C(Cl)(Cl)Cl	inactive: 2.43%	
C[C@]12CCC(=O)C(O)=C1CC[C@@H]1[C@@H]2CC[C@]2(C)C(=O)CC[C@@H]12	inactive: 22%	
Cc1ccc(Cl)c(O)c1	inactive: 5.5%	
CCC(C)C1NC(=O)C(C(C)=O)=C1O (stereo not drawn)	inactive: -8.27%	
CCN(CC)C(=O)N[C@@H]1C=C2c3cccc4[nH]cc(c34)C[C@@H]2N(C)C1	inactive: -0.077%	
COc1c(C(C)C)cc2c(c1O)[C@@]1(C(=O)O)CCCC(C)(C)C1CC2 (stereo partly drawn)	inactive: 10.7% [at 38.5 µM]	
COC1CC(=C(c2cccs2)c2cccs2)C[N+](C)(C)C1 (stereo not drawn)		inconclusive: 35.5 µM [cytotoxic, single point]
CN1C(=O)COc2c(C(=O)NC3CN4CCC3CC4)cc(Cl)cc21 (stereo not drawn)	inactive: 26.2%	
O=[N+]([O-])O[C@H]1CO[C@H]2[C@@H]1OC[C@H]2O[N+](=O)[O-]	inactive: 11.6%	
CCCN1CCC[C@@H]2Cc3nc(N)ncc3C[C@H]21	inactive: -11.7%	
CCC(CC)(CNC(=O)CCCO)c1cccc(OC)c1	inactive: -1.92%	
CCCCC/C=C\C/C=C\C/C=C\C/C=C\CCCC(=O)NCC(=O)O	inactive: -2.62%	
CC(C)[C@H]1OC(=O)[C@H](Cc2ccccc2)N(C)C(=O)[C@@H](C(C)C)OC(=O)[C@H](Cc2ccccc2)N(C)C(=O)[C@@H](C(C)C)OC(=O)[C@H](Cc2ccccc2)N(C)C1=O		active: 7.94 µM
C=C(C)[C@@H]1[C@H]2OC(=O)[C@H]1[C@]1(O)C[C@H]3O[C@]34C(=O)O[C@H]2[C@]14C	inactive: 22.4%	
CCC(C)(C)c1ccc(O)cc1	inactive: 22.2%	
Nc1ccc(Sc2ccc(N)cc2)cc1		inconclusive: 14.1 µM [cytotoxic, single point]
